Experimental data from ChEMBL document CHEMBL4888484, “Replenishing the malaria drug discovery pipeline: Screening and hit evaluation of the MMV Hit Generation Library 1 (HGL1) against asexual blood stage Plasmodium falciparum ,using a nano luciferase reporter read-out” (2022).
The campaign covered roughly 150,000 compounds. About 540 (0.36%) showed an effect of 50% or more. The list shows a part of the results.

Test system: Plasmodium falciparum
Experiment: Primary screen in NF54 nanoGlo assay, in single point, at 2uM, 72h; a lower Z score goes with more inhibition
Format: functional, Erythrocyte
Details: timepoint 72 hour

SMILES | % Inhibition [%] | Z score
C[C@H]1C(=O)N(C)CCN1C(=O)COCc1ccccc1 | 4 | -0.64
Cc1nccc(O[C@H]2CCN(C(=O)Cn3ncccc3=O)C2)n1 | -8 | 1.29
O=C(c1cnn2c1OCCC2)N1CCCCC1 | -9 | 1.36
O=C(NCC1CCN(C(=O)c2ccco2)CC1)c1ccco1 | 7 | -0.86
COc1ccc(F)c(F)c1C(=O)N1C[C@H](C)[C@@](O)(C2CC2)C1 | -4 | 0.57
CCC(C)(CC)NC(=O)c1ocnc1C | -4 | 0.54
COC(C)(C)CNC(=O)N(C)[C@@H](C)c1nc(C)sc1C | -1 | 0.11
CC1(C)CN(c2cnc(C(=O)O)cn2)Cc2ccccc21 | 3 | -0.43
O=C(COC[C@H]1CCCO1)Nc1[nH]ncc1S(=O)(=O)c1ccc(Cl)cc1 | 4 | -0.74
O=C1Nc2ccc(-c3ccc4c(c3)OCO4)cc2C(=O)N2CCN(C(=O)C3CCCCC3)C[C@H]12 | -3 | 0.5
CCN1C(=O)NC(=O)C12CCN(C(=O)CCCOc1ccccc1)CC2 | -6 | 1.22
CN1CCC(N(C)Cc2ccc(Br)o2)CC1 | -6 | 1.15
Fc1ccc(CNCc2nnc3n2CCC3)cc1Br | -9 | 0.96
CC1(C)Cc2cccc(N3C(N)=NC(N)=NC3(C)C)c2O1 | 3 | -0.46
Cc1ccc(N2CCOCC2)c(NC(=O)C2CCCCC2)c1 | -1 | 0.12
Fc1ccc(-c2nc3c(Br)c(-c4ccccc4)nn3cc2CCN2CCOCC2)cc1 | -7 | 0.98
Cc1nc(C(=O)N2CCOC3CCCCC32)ccc1C#N (stereo not given) | -3 | 0.44
O=C(Nc1ccc2c(c1)OCCCO2)C1CCCCC1 | -1 | 0.25
CN(CC1CCC1)[C@H]1CCCN(Cc2ccc(F)cc2F)C1=O | -7 | 0.97
Cc1nn(CC(C)C)c(Cl)c1CNc1cnn(CC(=O)NCCO)c1 | -6 | 0.58
COc1cc2c(cc1C(=O)N1C[C@@H]3CC[C@H]1CN(C(C)=O)C3)CCC2 | 2 | -0.25
CCc1ccc(-c2ccc(NC3CCCCC3)nn2)cc1S(N)(=O)=O | -29 | 2.71
COc1ccc(N2C3=[N+](CCCCC3)C[C@]2(O)c2ccccc2)cc1 | -4 | 0.68
Cc1cc(=O)c(C(=O)NCC2CCN(C(=O)c3ccoc3)CC2)cn1C | -11 | 1.36
CN(C(=O)OC(C)(C)C)c1ccc(C(=N)N)cc1 | 1 | -0.2
Cc1cccc([C@H]2c3cc(OCc4nc(C(=O)N(C)C(C)C)co4)ccc3CCN2C(=O)c2ccco2)c1 | 6 | -0.77
CCN(CC)C(=O)C1=CC(c2cccs2)=NS(=O)(=O)N1C | -6 | 1.16
Cc1ccc(C)c(Nc2nc3nonc3nc2Nc2c(C)n(C)n(-c3ccccc3)c2=O)c1 | -5 | 0.89

SMILES | % Inhibition [%] | Z score
COC[C@H](C)NC(=O)c1ccc(S(=O)(=O)N2CCN[C@H](C)C2)cc1 | -10 | 2.02
Cn1cc(C(=O)N2CCC[C@H](c3nccn3CC3CCC3)C2)ccc1=O | 1 | -0.11
COc1ccc(Cc2n[nH]c([C@H](C)N3CCN(C)CC3)n2)cc1OC | -6 | 1.05
CCc1ccc(CN(C)[C@H]2CN(C3Cc4ccccc4C3)C[C@@H]2O)nc1 | -9 | 1.58
CCn1c(=O)c2ccn(CC(=O)Nc3ccc(F)cc3)c2n(CC)c1=O | -31 | 3.16
Cc1nc2cc(NC(=O)[C@H]3CC3(Cl)Cl)ccc2o1 | -1 | 0.14
CCN(CC)S(=O)(=O)NC1CC2CCC1(C)C2(C)C (stereo not given) | -10 | 1.31
O=C(NCC(=O)N1CCN(c2ccccc2)CC1)C1CCCCC1 | 9 | -1.17
CN1CC[C@H](C(=O)N2CC3(CCCCC3)C2)C1 | 1 | -0.14
CCc1nnc(-c2cc(C)n(CC(=O)NCc3ccc(OC)cc3)c2C)o1 | -12 | 2.31
CO[C@H]1CCN(c2ccc(NC(=O)C3CCN(C(C)=O)CC3)cc2)C1 | -11 | 1.41
O=C(NCC(F)(F)c1ccc(F)cc1)Nc1ncc(C2CCOCC2)s1 | -7 | 0.71
Cn1cc(CNC(=O)c2ccc3oc(-c4cccc(F)c4)nc3c2)cn1 | -11 | 1.49
CN1CCCN(C(=O)c2cncc(-c3ccc4c(c3)CCO4)c2)CC1 | -9 | 0.88
O=C(N[C@H]1CCS(=O)(=O)C1)c1occc1-c1ccccc1 | 10 | -1.82
CC(C)(C)[C@@](C)(C#N)NC(=O)C1CN(C(=O)C2CCCCC2)C1 | -3 | 0.41
CCC(=O)N[C@@H](C)COc1ccccc1OC | -10 | 1.1
CC(NC(=O)C1CC(=O)N(C)C1)c1cccs1 (stereo not given) | -18 | 1.83
Cc1nc(N(C)Cc2nc3ccccc3s2)c2nc(C)oc2n1 | -3 | 0.36
CCc1cc(O)ccc1NC(=O)C1CCOC1C (stereo not given) | -2 | 0.14
O=C(CN1CCOCC1)NCCCC[C@H]1CCCO1 | -13 | 1.85
COc1ccc(CCc2nc(CC(N)=O)nn2CCO)cc1 | -23 | 2.28
Cc1cc(Br)ccc1CC(=O)NCCNC(=O)N(C)C | -9 | 0.91
CCOC1CN(C(=O)NC[C@H]2CC(=O)N(CCOC)[C@@H]2c2cnn(C)c2C)C1 | 1 | -0.14
CN(C)C(=O)CCNC(=O)NOCc1ccccc1 | -1 | 0.25
O=C(NC[C@H]1OC[C@@H](N(Cc2ccc(F)cc2)Cc2ccc(F)cc2)[C@@H]1O)c1ccccc1 | 10 | -1.2
COc1ccc(C(=O)N(CC(=O)Nc2nc(-c3ccc(Cl)cc3)cn2-c2cccc(OC)c2)CC(C)C)cc1 | 8 | -1.57
